Source: the RNAGym collection of RNA variant scans (doi:10.1073/pnas.2313332121)
This sample is rich in variants without activity.

B1: TPR 5TU (parent)
chain: GGAUCUUCUCGAUCUAACAAAAAAGACAAAUCUGCCACAAAGCUUGAGAGCAUCUUCGGAUGCAGAGGCGGCAGCCUUCGGUGGCGCGAUAGCGCCAACGUUCUCAACUAUGACACGCAAAACGCGUGCUCCGUUGAAUGGAGUUUAUCAUG

Variants of: B1
Test: polymerase ribozyme fitness, log enrichment relative to wild type (log ratio); higher = more active; in vitro selection for triplet polymerase activity
Outline: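 Frozen incubation at −7 °C formed the core of a single, triplicate in vitro selection round applied to PCR-built, transcribed mutant libraries of each subunit of a heterodimeric triplet polymerase ribozyme. Extended constructs were gel-excised, captured with streptavidin beads and amplified by RT-PCR, and input and output libraries were Illumina-sequenced with a filter of ≥10 input reads and ≥1 read per output. Fitness is the logarithm of genotype enrichment relative to wild-type enrichment, with inverse-variance-weighted replicate averaging, and the logarithm is base 2.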

Polymerase ribozyme fitness (log ratio), ≤ -4.2:
GGAUCUUCUCGAUCUAACAAAAUAGACAAAUCUGCCACAAAGCUUGAGACCAUCUUCGGAUGCAGAGGCGGCAGCCUUCGGUGGCGCGUUAGCGACAACGUUAUCAACUUUGGCAGGCAAAACGCGUGCUCCGUUGAAUGGAUAUUAGCAUG
GGAUCUUCUCGAUCUAACAAAAUAGACAAAUCUGCCACAAAGCUUGAGAUCAUCUUCGGAUGCAGAGGCGGCAGCCUUCGGUGGCGCGAUAGCGACAACGUUCUCAACUAUGACACGCAAAACGCGUGCUCCGUUGAAUGGAGUUGAUCAUG
GGAUCUUCUCGAUCUAACAAAAUAGACAAAUCUGCCACAAAGCUUGAGAGCAUCUUCCGAUGCAGAGGCGGCAGCCUUCGGUGGCGCGAUAGCGCCAACUUUCUCAACUAUGACACGCAAAACGCGUGCUCCGUUGAAUGCAGUUUAUCAUG
GGAUCUUCUCGAUCUAACAAAAUAGACAAAUCUGCCACAAAGCUUGAGAGCAUCUUCGAAUCCAGAGGCGGCAGCCUUCGGUGGCGCGAUAGCGACAACGUUCUCAACUAUGACACGCAAAACGCGUGCUCCGUUGAAUGGAGUUUAUCAUG
GGAUCUUCUCGAUCUAACAAAAUAGACAAAUCUGCCACAAAGCUUGAGAGCAUCUUCGGAUGCAGAUUCGGCAGCCAUCGGUGGCGCGAUAGCGCCAACGUUCGCAACUAUGACACGCAAAACGCGUGAUCCGUUGAAUGGAGUUUAUCAUG
GGAUCUUCUCGAUCUAACAAAAUAGACAAAUCUGCCACAAAGCUUGAGAGCAUCUUCGGAUGCAGAGACGGCUGCCUUCGGUGGCGCGAUAGCGCCAAUGUUCUCAACUAUGACACGCAAAACGCGUGCUCCGUUGAAUGGAGUUUAUCAUG
GGAUCUUCUCGAUCUAACAAAAUAGACAAAUCUGCCACAAAGCUUGAGAGCAUCUUCGGAUGCAGAGGCGACAGCCUUCGGUGGAGCGAUAGCGCCAACGUUCUCAACUAUGACACGCAAAACGCGUGCUCCGUUGAAUGGAGGUUAUCAUG
GGAUCUUCUCGAUCUAACAAAAUAGACAAAUCUGCCACAAAGCUUGAGAGCAUCUUCGGAUGCAGAGGCGGCAGCCUUCCGUAGCGCGAUAGCGCCAACGUUCUCAACUAUGACACGAAAAACGCGUGCUCCAUUGAAUGGAGUUUAUCAUG
GGAUCUUCUCGAUCUAACAAAAUAGACAAAUCUGCCACAAAGCUUGAGAGCAUCUUCGGAUGCAGAGGCGGCAGCCUUCUGUGGCGCGAUUGCGCCAACGUUCUCAACUAUGACACGCAAAACGCGUGCUCCGUUGAAUGGACUUUAUCGUG
GGAUCUUCUCGAUCUAACAAAAUAGACAAAUCUGCCACAAAGCUUGAGAGCAUCUUCGGAUGCAGAGGCGGCAGCCUUCGGUCGCGCGAUAGCGCCAACGUUCUCAACUAUGACGCGCAAAACGCGUGCUCCGUUGGAUGGAGUUUAUCAUG
GGAUCUUCUCGAUCUAACAAAAUAGACAAAUCUGCCACAAAGCUUGAGAGCAUCUUCGGAUGCAGAGGCGGCAGCCUUCGGUCGCGCAAUAGCGCCAUCGUUCUCAACUAUGACACGCAUAACGCGUGCUGCGUUGAAUGGAGUUUAUCCUG
GGAUCUUCUCGAUCUAACAAAAUAGACAAAUCUGCCACAAAGCUUGAGAGCAUCUUCGGAUGCAGAGGCGGCAGCCUUCGGUUGCGCGAUAGAGCCAACGUUCUCAACUAUGACACGCAAAACGCUUGUUCCGUUGAAUGGAGUUUAUCAUG
GGAUCUUCUCGAUCUAACAAAAUAGACAAAUCUGCCACAAAGCUUGAGAGCAUCUUCGGAUGCAGAGGCGGCAGCCUUCGGUUGCGCGAUAGCUCCAACGUUCACAACUAUGACACGCAAAACGCGUGCUCCGAUUAAUGGAGUUUAUGAUG
GGAUCUUCUCGAUCUAACAAAAUAGACAAAUCUGCCACAAAGCUUGAGAGCAUCUUCGGAUGCAGAGGCGGCAGCCUUCGGUGGCUCGAUAGCGCCAACGUUCUCAACUAUGACACGCAAAACGCGUGCUCCGUUGAAUGGAGUUUAUCAUG
GGAUCUUCUCGAUCUAACAAAAUAGACAAAUCUGCCACAAAGCUUGAGAGCAUCUUCGGAUGCAGAGGCGGCAGCCUUCGGUGGCGCAAUCGCGCCAACGUUCUCAACUAUGAUACGCAAAACGAGUGCUCCGUUGAAUGGAGUUUAUCAUG
GGAUCUUCUCGAUCUAACAAAAUAGACAAAUCUGCCACAAAGCUUGAGAGCAUCUUCGGAUGCAGAGGCGGCAGCCUUCGGUGGCGCUUUAGCGCGAACGUUCUCAACUAUGACACGCAAAACGCGUGCUCCGUUGAAUGGAGUUUAUCAUG
GGAUCUUCUCGAUCUAACAAAAUAGACAAAUCUGCCACAAAGCUUGAGAGCAUCUUCGGAUGCAGAGGCGGCAGCCUUCGGUGGCGCGAUAGCACCAACGUUCUCAACUAUGACACGCAAAACGCGUGCUCCGUUGACUGGAGUUUAUCAUG
GGAUCUUCUCGAUCUAACAAAAUAGACAAAUCUGCCACAAAGCUUGAGAGCAUCUUCGGAUGCAGAGGCGGCAGCCUUCGGUGGCGCGAUAGCGCCAACGUUCUCAACUAUGACACGCAAAACGCGUGCUCCGUUGAAUCGAGUUUAUCAUG
GGAUCUUCUCGAUCUAACAAAAUAGACAAAACUGCCACAAACCUUGAGAGCAUUUUCGGAUGCAGAGUCGGCAGCCUUCGGUGGCGCGAUAGCGGCAACGUUCUCAACUAUGACACGCAAAACGCGUGCUCCGUUGAAUGGAGUUUAUCAUG
